Results: paper PMC7272049 (2020)

B1: mCTLA-4 hIgG1 [mouse] / WT mB7-1 mCherry [mouse] (parent complex)
chain 1: not shown
chain 2: VDEQLSKSVKDKVLLPCRYNSPHEDESEDRIYWQKHDKVVLSVIAGKLKVWPEYKNRTLYDNTTYSLIILGLVLSDRGTYSCVVQKKERGTYEVKHLALVKLSIKADFSTPNITESGNPSADTKRITCFASGGFPKPRFSWLENGRELPGINTTISQDPESELYTISSQLDFNTTRNHTIKCLIKYGDAHVSEDFTWEKPPEDPPDSKNTLVLFGAGFGAVITVVVIVVIIKCFCKHRSCFRRNEASRETNNSLTFGPEEALAEQTVFL
B2: WT mB7-1 mCherry [mouse] / WT mPD-L1 GFP [mouse] (parent complex)
chain 1: B1 chain 2
chain 2: not shown

Variants of: B1
Assay: flow cytometry on cells; HEK 293 freestyle cells co-transfected with mB7-1 mCherry (mutant) and mPD-L1 GFP; 1 hour at room temperature; anti-human Alexa 647 secondary; mCherry & mPD-L1; read off a plot

| Variant | response [% Bound] |
| --- | --- |
| chain 2 R30D | ~7.7 |
| chain 2 K12A | ~97 |
| chain 2 L59A | ~99 |
| chain 2 L70D | ~98 |

Variants of: B2
Assay: flow cytometry on cells (co-transfection competition); value is mPD-1 hIgG1 bound to cells co-expressing mB7-1 mutant mCherry and mPD-L1 GFP; higher value = less cis mB7-1:mPD-L1 binding; no-B7-1 control (mCherry &); read off a plot

| Variant | screen value [% Bound] |
| --- | --- |
| chain 1 K12A | ~76 |
| chain 1 L70D | ~82 |
| chain 1 L59A | ~47 |
